# Assay results reported in PubChem BioAssay AID651820 (National Center for Advancing Translational Sciences (NCATS), 2012).
# The whole screen tested about 340,000 compounds, of which about 12,000 (3.5%) were called active. This list was built around the results that the source calls inconclusive (neither active nor inactive); the mix of calls is not that of the screen. The call rests on the fitted dose curve; in most records, active means well fitted inhibition curve with a large enough effect; inconclusive means small, poorly fitted or top-dose-only effect, or another doubt; inactive means no such curve, though single readings can be large or run the other way. Potencies of inconclusive entries are left out as doubtful fits.
# Test: qHTS Assay for Inhibitors of Hepatitis C Virus (HCV)
# Conditions: Huh7.5.1 HCVcc-Cre (HCVcc is cell-culture hepatitis C virus) infection, luciferase reporter, 44 h; activity change, negative = inhibition: at 41.8 µM (top of the series)
# Summary of the method: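 Antiviral activity was scored by luciferase reporter output from cells infected with HCVcc-Cre (~0.5 moi) in presence of compound, 44 h infection period, cells seeded 1,000/well 4 h prior.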
# On the % scale 0 is the no-effect control and ±100 the full control effect; potency means the concentration at half of the fitted maximal effect; tags describe the fitted curve by direction and shape.
SMILES,Potency,"activity change, negative = inhibition"
CC(C)NC(=O)c1ccc2c3n(nc2c1)-c1ccc(Cl)cc1CO3,"inconclusive [inhibitor, partial curve]",
CCN(CC)CCOc1ccc2c(c1)C(=NNC(=O)c1ccccn1)c1cc(OCCN(CC)CC)ccc1-2,"inconclusive [inhibitor, single point]",
CCN1C(=O)[C@H]2[C@@H](c3ccc(C)cc3)N3C(=O)N(c4cccc(F)c4)C(=O)[C@@]3(Cc3ccc(Cl)cc3)[C@H]2C1=O,"inconclusive [inhibitor, single point]",
COc1cc(SC)ccc1C(=O)NC1CCCc2ccccc21 (stereo not given),"inconclusive [inhibitor, single point]",
C[C@H](CO)N1C[C@H](C)[C@H](CN(C)C(=O)Nc2ccc(C(F)(F)F)cc2)Oc2c(NC(=O)c3ccncc3)cccc2C1=O,"inconclusive [inhibitor, partial curve]",
CC(=O)Nc1cccc(/C(C)=N/Nc2nc3ccccc3s2)c1,"inconclusive [inhibitor, partial curve]",
CC(=O)c1ccc(NC(=O)/C=C/c2ccc(C)cc2)cc1,"inconclusive [inhibitor, partial curve]",
CCCCn1nc2cc(C(=O)NCCCCc3ccccc3)ccc2c1OCC,"inconclusive [inhibitor, partial curve]",
Cn1cnc([N+](=O)[O-])c1S(=O)(=O)Oc1cccc2ccccc12,"inconclusive [inhibitor, partial curve, poor fit]",
O=C(Cc1ccc([N+](=O)[O-])cc1)OCc1ccc([N+](=O)[O-])cc1,inactive,
Cc1ccc2[nH]c(C)c(CCNC(=O)NC3CCCCC3)c2c1,"inconclusive [inhibitor, partial curve]",
CC(C)c1ccc(N=C2N=C(N)c3ccccc32)cc1,"inconclusive [inhibitor, single point]",
O=C(NCc1cccnc1)c1ccc(Cn2cc(C(F)(F)F)ccc2=O)cc1,inactive,
O=C(c1ccc(F)cc1)N1CCC(C(=O)N2CCN(Cc3ccc4c(c3)OCO4)CC2)CC1,"inconclusive [inhibitor, single point]",
CCOC(=O)CCCN1CC(O)=C(c2nc3ccccc3s2)C1=N,inactive,
COc1cc(-c2nnn(CC(=O)NCc3ccccc3)n2)cc(OC)c1OC,"inconclusive [inhibitor, single point]",
CC(Sc1nnc(C2CC2)n1-c1ccccc1)C(=O)N1CCCC1 (stereo not given),inactive,
CCn1c(=S)sc2c(=O)n(-c3ccccc3)c(SCC(=O)NCc3ccco3)nc21,inactive,
COc1ccc(CN2CCN(c3ccccc3OC)CC2)c(OC)c1,inactive,
O=C(Cc1ccccc1)NCc1n[nH]c(=S)n1-c1ccc(Br)cc1,inactive,
CCCCn1c(=O)[nH]c(=O)c2c1nc(-c1ccc3ccccc3c1)n2CC,"inconclusive [inhibitor, single point]",
CC(C)c1nc(SCC(=O)N2c3ccccc3CC2C)c2ccccc2n1 (stereo not given),"inconclusive [inhibitor, partial curve]",
COc1ccc(NC(=O)Cc2cccs2)cc1S(=O)(=O)N1CCCCC1,inactive,
CCN(CC)CCC(=O)N1c2ccccc2Sc2ccc(Cl)cc21,"inconclusive [inhibitor, partial curve]",

SMILES,Potency,"activity change, negative = inhibition"
CSc1ccccc1C(=O)OCC(=O)N1CCN(C(C)=O)CC1,inactive,
O=C(Nc1cccc(N=Cc2cc(Cl)cc(Br)c2O)c1)c1ccco1,"inconclusive [inhibitor, single point]",
Cc1ccc(N(C(=O)Cn2nnc3ccccc32)C(C(=O)NCc2ccccc2)c2ccccn2)cc1 (stereo not given),inactive,
Cc1cccc(CSc2nc3c(c(-c4cccs4)c2C#N)CN(C)CC3)c1,"inconclusive [inhibitor, single point]",
COc1ccc2[nH]c(=O)c(CN(CC3CCCO3)S(=O)(=O)c3ccccc3)cc2c1 (stereo not given),"inconclusive [inhibitor, single point]",
COc1ccc(NC(=S)NC(NC(=O)CCl)C(Cl)(Cl)Cl)c([N+](=O)[O-])c1 (stereo not given),"inconclusive [inhibitor, partial curve]",
Cc1cc(N(C)Cc2ccccc2)nc(-c2ccccc2)n1,active: 10 µM,
CN(C)C1=NC[C@H](Cc2ccccc2)N1CC1CCCCCC1,"inconclusive [inhibitor, single point]",
CN(C)c1ccc(/C=N/N=C/c2ccccc2O)cc1,inactive,
O=C(N/N=C/c1cccc(OCc2ccccc2)c1)c1ccc(Br)cc1,"inconclusive [inhibitor, single point]",
COc1ccc(-c2ccc(SCC(=O)c3ccc(F)cc3)nn2)cc1OC,"inconclusive [inhibitor, single point]",
CCCOc1ccc(C(=O)Nc2ccc3c(c2)OCCO3)cc1,"inconclusive [inhibitor, partial curve]",
O=C(Oc1c(-c2ccccc2)c(=O)n2c3c(cccc13)CC2)c1ccc(F)cc1,inactive,
COc1ccc(OC)c(S(=O)(=O)NCC(c2ccc(F)cc2)N2CCN(C)CC2)c1 (stereo not given),"inconclusive [inhibitor, single point]",
COc1cccc(-c2cc(C(F)(F)F)nc(-n3cc(Cl)cn3)n2)c1,"inconclusive [inhibitor, partial curve]",
CC1Oc2ccccc2N(CC(=O)N2CCCC2)C1=O (stereo not given),inactive,
Cc1ccc2nc(N(CCCN(C)C)C(=O)CCc3ccccc3)sc2c1,"inconclusive [inhibitor, partial curve, poor fit]",
CCCN=C(Nc1ccc(Cl)cc1)c1cccnc1,inactive,
CCn1cc(C(=O)NCc2ccc(C)o2)c2cc(OC)c(OC)cc2c1=O,"inconclusive [inhibitor, partial curve, poor fit]",
CCOC(=O)C1=C(NC(=O)c2ccc(Br)o2)Nc2ccccc2N=C1,"inconclusive [inhibitor, partial curve]",
COc1cc(C(=O)O/N=C2\C=CC(=O)C(C)=C2)cc(OC)c1OC,"inconclusive [inhibitor, single point]",
COc1ccc(Oc2nc(-c3cccnc3)nc3ccccc23)cc1,"inconclusive [inhibitor, single point]",
O=C(Nc1ccccc1)C1=C[C@@H](C2CCCCC2)C[C@@H](OCc2ccc(CO)cc2)O1,"inconclusive [inhibitor, partial curve]",
Cc1c(C#N)sc(C(N)=O)c1C,inactive,

SMILES,Potency,"activity change, negative = inhibition"
COc1cc(/C=N/NC(=S)NC2CC3C=CC2C3)cc(OC)c1OC (stereo not given),,inconclusive: -50.4% [inhibitor]
CCCN(CCC)C(=O)Cn1c(=O)n(CCCC(=O)NCc2ccco2)c(=O)c2sccc21,inactive,
Cc1cc(SCC(=O)N/N=C/c2ccc(O)cc2O)c(C)cc1Br,"inconclusive [inhibitor, partial curve]",
COc1ccc(CNC(=O)CSc2nnc3c(n2)[nH]c2ccc(OC)cc23)cc1,inactive,
C/C(=N\NC(=O)c1cccc(Cl)c1)c1cccc(NC(=O)c2ccco2)c1,"inconclusive [inhibitor, full curve]",
COc1ccc(NC(=O)CSC2=C(C#N)C(c3ccco3)C(C(=O)Nc3nc4ccccc4s3)=C(C)N2)cc1 (stereo not given),"inconclusive [inhibitor, single point]",
CCOC(=O)N1CCN(C(=O)CCCCCn2c(=S)[nH]c3cc4c(cc3c2=O)OCO4)CC1,"inconclusive [inhibitor, single point]",
CC(NCCCOc1cccc2ccccc12)c1ccccc1 (stereo not given),"inconclusive [inhibitor, single point]",
S=C(N/N=C1\CCc2ccccc21)NC1CCCCC1,active: 8.91 µM,
CC(=O)c1ccc(-c2ccc(C(=O)N(C)Cc3nc4ccccc4c(=O)[nH]3)o2)cc1,active: 7.08 µM,
CC(C)Cc1cc(C(=O)N2CCN(C(c3ccccc3)c3ccccc3)CC2)no1,inactive,
CC(=O)N1CCN(S(=O)(=O)c2cccc(C(=O)OCc3cccc(F)c3)c2)CC1,"inconclusive [inhibitor, partial curve]",
CCN1CCN(c2ccc(S(=O)(=O)N3CCCCC3)cc2NC(=O)c2cccc(F)c2)CC1,"inconclusive [inhibitor, partial curve]",
CN(C)S(=O)(=O)c1ccc(N2CCCC2)c(C(=O)Nc2ccccc2N2CCOCC2)c1,inactive,
CC(=O)Nc1ccc(NC(=O)c2cc(-c3cc(C)cc(C)c3O)n[nH]2)cc1,active: 8.91 µM,
Oc1ccc(N=Nc2ccccc2C(F)(F)F)c2cccnc12,active: 3.16 µM,
Cn1c2ccccc2c(=O)c2ccc(C#CC3(N)CCCCC3)cc21,active: 11.2 µM,
COc1ccc([N+](=O)[O-])cc1NC(=O)c1ccc(CN(c2ccccc2)S(C)(=O)=O)cc1,"inconclusive [inhibitor, partial curve]",
NS(=O)(=O)c1ccc(CCNC(=O)c2ccc(Cn3c(=O)[nH]c4ccccc4c3=O)cc2)cc1,"inconclusive [inhibitor, single point]",
COc1ccc(C(CNC(=O)c2cc3ccccc3o2)N2CCCCC2)cc1 (stereo not given),active: 15.8 µM,
COc1ccc(CNC(=O)CCCc2ccccc2)cc1,inactive,
CC(C)(C)Sc1ccc([N+](=O)[O-])cc1C(=O)Nc1ccncc1,inactive,
